Where “and” joins values, the source holds several entries; their conditions need not be identical. Identical values can stand only once. The whole screen tested about 340,000 compounds, of which about 6,900 (2%) were called active. Cut-off read from the data, not from the text of the source: active = inhibition above about 30%; inactive = below that, where a call was filed. The list shows a part of the results, in another mix than the full data. Where no call is shown, the source filed none.
Molecular target: D(2) dopamine receptor (Homo sapiens) (UniProt P14416)
UniProt P14416, sequence (P14416 whole entry, looked up): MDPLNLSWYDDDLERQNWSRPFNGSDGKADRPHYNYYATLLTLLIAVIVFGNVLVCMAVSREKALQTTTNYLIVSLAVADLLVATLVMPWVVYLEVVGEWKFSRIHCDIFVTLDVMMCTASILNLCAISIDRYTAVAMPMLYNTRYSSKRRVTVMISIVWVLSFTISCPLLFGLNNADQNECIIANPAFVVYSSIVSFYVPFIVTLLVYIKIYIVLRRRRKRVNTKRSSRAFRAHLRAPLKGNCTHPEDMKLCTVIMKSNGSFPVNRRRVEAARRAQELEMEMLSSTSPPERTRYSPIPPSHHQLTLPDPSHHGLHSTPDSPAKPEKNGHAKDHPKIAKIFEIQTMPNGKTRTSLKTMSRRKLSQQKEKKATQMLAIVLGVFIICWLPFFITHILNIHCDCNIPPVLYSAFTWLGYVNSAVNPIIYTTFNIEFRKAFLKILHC
Assay: HTS Assay for Allosteric Antagonists of the Human D2 Dopamine Receptor: Primary Screen for Antagonists; note: 0% is about no effect
Conditions: HEK293 TREx D2 cells, calcium flux, dopamine EC80; at 10 µM; stronger effect = higher value
In short: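 Dopamine at EC80 is the agonist stimulus; test compounds precede it by 180 s. Calcium flux read kinetically in a force-coupled, inducible HEK293 T-REx D2 cell line.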

| Compound | inhibition |
| --- | --- |
| CCCCCn1c(CNC(=O)c2ccc(F)cc2)nc2ccccc21 | -21.5% |
| CCc1ccc(-n2nc(C)c3c(C(=O)N4CCN(c5cccc(Cl)c5)CC4)cc(C)nc32)cc1 | 9.33% |
| Cc1nn(CC(=O)N2CCN(c3cccc(Cl)c3)CC2)c(=O)c2c1sc1ccccc12 | 14.1% |
| CCOC(=O)c1ccc(NC(=O)CCc2c(C)nc3c(c(C)nn3C(C)(C)C)c2C)cc1 | 1.45% |
| CC(C)CCNC(=O)c1ccc(Cn2c(SCC(N)=O)nc3ccccc3c2=O)cc1 | 14.4% |
| CCOc1cc(C(=O)OCc2cc(=O)n3nc(C4CC4)sc3n2)cc(OCC)c1OCC | -16.3% |
| COc1cc(OC)c(NC(=O)NCc2cccn2Cc2ccccc2)cc1Cl | 4.21% |
| CCc1ccccc1NC(=O)Cn1c(=O)n(-c2ccc(C)c(C)c2)c(=O)c2oc3ccccc3c21 | 4.59% |
| COc1ccc(S(=O)(=O)NCCc2sc(-c3cccc(C)c3)nc2C)cc1 | -1.63% |
| Cc1ccc(CCNC(=O)c2cccc(Nc3nc4ccccc4nc3-n3nc(C)cc3C)c2)cc1 | 18.4% |
| COc1cc(Br)ccc1C1C(C(=O)Nc2ccc(C)cc2C)=C(C)Nc2nnnn21 (stereo unspecified) | -15.5% |
| CCN(C(=O)c1cc2cc(Br)cc(OC)c2oc1=O)c1ccccc1 | 1.15% |
| O=C(NC1CCCCCC1)c1ccc(CS(=O)c2ccc(Br)cc2)o1 (stereo unspecified) | -2.37% |
| O=S(=O)(Nc1ccc(-c2ccc(N3CCCC3)nn2)cc1)c1ccc(OC(F)(F)F)cc1 | 3.75% |
| COc1cccc(C2c3c(-c4ccccc4O)n[nH]c3C(=O)N2Cc2cccnc2)c1 (stereo unspecified) | 22.8% |
| COC(=O)c1ccc(NC(=O)CCN2CCN(c3ccccc3)CC2)cc1 | active: 50.3% |
| CC(C)CCNC(=O)c1nn(C)c2c1CSc1ccccc1-2 | 27% |
| COC(=O)c1c(-c2cccs2)csc1NC(=O)c1cc(OC)c(OC)c(OC)c1 | -0.059% |
| CCOc1cc2[nH]c(=O)n(CCCC(=O)NCc3ccc(OC)cc3)c(=O)c2cc1OCC | 9.99% |
| COc1ccc(-n2ccn(CC(=O)Nc3ccc(C)c(C)c3)c(=O)c2=O)cc1OC | -11% |
| Cc1ccc(F)cc1NC(=O)CCSc1nc(-c2ccco2)cc(C(F)(F)F)n1 | 6.89% |
| CC1CCCN(S(=O)(=O)c2cc(C(=O)NCc3ccccc3Cl)n(C)c2)C1 (stereo unspecified) | 11.8% |
| Cc1ccc(NC(=O)C(=O)NCC(c2cccnc2)N2CCc3ccccc3C2)cc1 (stereo unspecified) | 4.24% |
| C=Cc1ccc(Cn2c(C(=O)O)c(CNCc3ccccc3)c3ccc(OC)cc32)cc1 | -4.25% |

| Compound | inhibition |
| --- | --- |
| CCc1ccc(Nc2sc(C(=O)c3ccccc3)c(N)c2S(C)(=O)=O)cc1 | -1.77% |
| Cc1ccc(CSc2nc(-c3ccc(C(C)(C)C)cc3)nc3cc(=O)[nH]n23)cc1 | -3.2% |
| CCOCCc1nn2c(=O)cc(COC(=O)CNC(=O)c3ccc(F)cc3)nc2s1 | 1.28% |
| CCOc1ccc(CC(=O)NCCc2csc(-c3ccc(Cl)cc3)n2)cc1 | -13.2% |
| COc1cc(C(CC(=O)Nc2cc(C)ccc2C)N2Cc3ccccc3C2=O)cc(OC)c1OC (stereo unspecified) | 0.587% |
| CN(Cc1ccccc1)C(=O)c1cccc(NC(=O)c2nsc3ccccc23)c1 | -6.9% |
| CN(CCCOc1ccccc1Br)Cc1ccccc1 | active: 38.5% |
| CC(=O)c1ccc(NC(c2ccc(F)cc2)c2nnc(-c3ccccc3)o2)cc1 (stereo unspecified) | 15.8% |
| CC(C)(C)OC(=O)N1CCC(c2c(C(=O)N3CCN(c4ccccn4)CC3)cnn2-c2ccccc2Cl)CC1 | -1.24% |
| CCOCCCNC(=O)c1cn(CC)c2ccc(S(=O)(=O)N3CCc4ccccc4C3)cc2c1=O | 7.83% |
| CCOC(=O)c1[nH]c(C)c(CCC(=O)N2CCN(c3cccc(C)c3C)CC2)c1C | 6.71% |
| Cc1ccc2nc(-c3ccncc3)c(Nc3ccc(C(C)C)cc3)n2c1 | -1.14% |
| Cc1ccc(CN2CCC(C(=O)NCCC(C)C)CC2)o1 | active: 30.1% |
| O=C(NCc1ccc(F)cc1)C1CCN(c2ncnc3c2nc2n3CCCCC2)CC1 | 12.5% |
| COc1ccc(CNC(=O)c2ccc3c(c2)N(Cc2ccccc2C)C(=O)c2ccccc2S3=O)cc1 (stereo unspecified) | 7.48% |
| COc1ccc(CNc2oc(/C=C/c3cccc(OC)c3)nc2C#N)cc1 | 0.71% |
| CCN1C(=O)C(CC(=O)Nc2ccc(OC)cc2)N(CCCN2CCN(c3ccc(F)cc3)CC2)C1=S (stereo unspecified) | active: 57.4% |
| COc1ccc(OC)c(CNC(=O)c2c(C)oc3ncn(C)c(=O)c23)c1 | 5.66% |
| O=C(c1ccc2c(c1)CCN2S(=O)(=O)c1ccc(Cl)cc1)N1CCN(c2ccccc2)CC1 | -5.85% |
| CCOc1ccc(CN2C(=O)c3ccccc3Sc3ccc(C(=O)OC)cc32)cc1 | 9.26% |
| COc1ccc(N2CC(NC(=O)c3ccco3)CC2=O)cc1OC (stereo unspecified) | -5.82% |
| O=S(=O)(Nn1cnnc1)c1ccccc1Cl | active: 30.4% |
| CCn1c(SCc2ccc(F)cc2Cl)nc(=O)c2c(C(=O)OC)cc(C3CC3)nc21 | 8.73% |
| Cc1ccc(CNC(=O)c2cc(-c3ccc(C)cc3)nc3n[nH]c(-c4ccc(F)cc4)c23)cc1 | 21.1% |

| Compound | inhibition |
| --- | --- |
| CCOC(=O)C1CCN(S(=O)(=O)c2ccc(N3CCCCS3(=O)=O)cc2)CC1 | -2.14% |
| COc1ccc(OCC2c3cc(OC)c(OC)cc3CCN2C(=O)COc2ccc(Cl)cc2Cl)cc1 (stereo unspecified) | -2.28% |
| CC(C)c1ccc2occ(CC(=O)Nc3ccccc3Cl)c2c1 | 2.31% |
| COc1ccc(Cn2ccc3nc(C)c(C(=O)N4CCN(c5ccccc5OC)CC4)cc3c2=O)cc1 | 12.3% |
| CC(C)NC(=O)C(c1ccccc1)N1Cc2ccccc2C1=O (stereo unspecified) | -4.44% |
| CC1=C(C(N)=O)C(c2cccc(C)c2)n2nc(-c3cccc(C)c3)nc2N1 (stereo unspecified) | 12.8% |
| Cc1ccc(C)c(NC(=O)Cn2c(=O)n(Cc3ccc4c(c3)OCO4)c(=O)c3oc4ccccc4c32)c1 | -12% |
| Cc1ccc(SCC(=O)OCC(=O)N(C)CC(=O)Nc2ccccc2Cl)cc1C | active: 33.3% |
| Cc1ccc(CSc2nnc(-n3c(=O)c(C#N)cc4c(=O)n5cc(C)ccc5nc43)s2)cc1 | 0.615% |
| COc1ccc(-c2noc(CSc3nc(C)cc(=O)[nH]3)n2)cc1OC | -0.39% |
| Cc1ccc(N(Cc2cc3ccccc3[nH]c2=O)C(=O)c2cccc(Cl)c2)cc1 | -6.91% |
| Cc1ccc(-c2cn3c(n2)sc2cc(C(=O)NCc4cccs4)ccc23)c(C)c1 | -13.9% |
| CC(=O)c1ccc(NC(=O)CC2Nc3cc(C)c(C)cc3NC2=O)cc1 (stereo unspecified) | 7.58% |
| Cc1ccccc1C(=O)NNc1ncnc2c1cnn2-c1cccc(Cl)c1 | -19.8% |
| O=C(COc1ccccc1F)NC1CCN(Cc2ccccc2)CC1 | active: 48.4% |
| CCOc1cc(CNC(=O)Cn2ncn3c(cc4cc(F)ccc43)c2=O)cc(OCC)c1OCC | 4.32% |
| CCCc1ccc(NC(=O)C2CCCN(c3cnccn3)C2)cc1 (stereo unspecified) | -26.5% |
| CCOc1ccc(Nc2nc(C)c(NC(=O)c3cccc(F)c3)c(Nc3ccc(OCC)cc3)n2)cc1 | -12.4% |
| COc1cccc(-c2oc3ccc(C)cc3c(=O)c2O)c1 | -7.24% |
| CCC1Oc2ccc(C)cc2N(CC(=O)N2CCN(c3ccccc3OC)CC2)C1=O (stereo unspecified) | -1.43% |
| Cc1noc(C)c1S(=O)(=O)N(CC(=O)NCCc1ccc(Cl)cc1)c1ccc(C(C)C)cc1 | 12.7% |
| CCOc1ccc(CNC(=O)CN2N=C(c3ccccc3)CCC2=O)cc1OC | 10.6% |
| CCc1ccc(C2C(C(=O)Nc3ccccc3OC)=C(C)Nc3nc(SCc4ccccc4)nn32)cc1 (stereo unspecified) | 9.63% |
| Cc1ccc(-n2ncc(C(=O)NCCN3CCN(C)CC3)c2C2CCN(C(=O)OC(C)(C)C)CC2)cc1 | -4.23% |

| Compound | inhibition |
| --- | --- |
| O=C(CSc1nc(N2CCOCC2)nc(N2CCOCC2)n1)Nc1ccc(Cl)cc1Cl | active: 33.1% |
| Cc1nc(C)c(-c2ccc(SCC(=O)Nc3cccc(C)c3C)nn2)s1 | 4.13% |
| Cn1c(C(=O)NCCc2ccccc2)cc2sc(Cl)cc21 | 12.9% |
| Cc1ccc(CNC(=O)CSc2nc3ccsc3c(=O)n2-c2ccc(Br)cc2)cc1 | 6.88% |
| CCOCCCn1c(SCC(=O)Nc2ccc(CC)cc2)nc2ccccc2c1=O | -20.9% |
| CN1CCN(c2cc(-c3ccccc3)nc3cc(-c4ccc(F)cc4)nn23)CC1 | active: 54.3% |
| COc1cc(NC(=O)Cn2ccc3ccccc3c2=O)cc(OC)c1OC | 2.72% |
| COc1ccc(C(=O)N(Cc2sccc2C)C2CCS(=O)(=O)C2)cc1 (stereo unspecified) | -5.26% and active: 37.8% |
| O=S(=O)(c1ccc(-c2csc(=Nc3ccc(F)cc3)n2CCCCCCO)cc1)N1CCCC1 | -17.6% |
| CCCc1nnc(NC(=O)Cc2coc3c(C)c(C)ccc23)s1 | -6.4% |
| COc1ccc(-c2c(C)[nH]n3c(=O)c(Cc4ccccc4)c(C)nc23)cc1OC | active: 34.9% |
| Cc1ccc(Cl)cc1N1CCN(S(=O)(=O)c2ccc3c(c2)C(C(C)C)C(=O)N3)CC1 (stereo unspecified) | -6.35% |
| O=C(Nc1ccc(Cl)cc1)c1ccc(-n2cnnc2)cc1 | -4.48% |
| O=C(COCc1cc(-c2cccs2)on1)NCc1ccc(F)cc1 | 6.56% |
| CC(C)c1ccc(NC(=O)C2CCCN2S(=O)(=O)c2ccc3nc(-c4ccccc4)[nH]c3c2)cc1 (stereo unspecified) | 9.28% |
| CCc1cc(=O)[nH]c(SCc2nc(-c3cccc(Cl)c3)no2)n1 | -9.83% |
| Cc1ccc(-n2ncc3c(N4CCN(Cc5ccccc5)CC4)ncnc32)cc1Cl | -8.64% |
| Cc1ccc(Nc2c(-c3cccnc3)nc3ccc(Cl)cn23)cc1 | -12.4% |
| CC(NC(=O)CN(C)CC(=O)Nc1ccc(F)c(F)c1F)c1ccccc1 (stereo unspecified) | active: 49.4% |
| CCOc1ccccc1N1CCN(Cc2ccc(OC)c(OC)c2)CC1 | active: 94.4% |
| COc1ccc2cc(CCNS(=O)(=O)c3ccc(C)cc3)c(=O)[nH]c2c1 | -0.402% |
| CCOC(=O)C1CCN(C(=O)c2c(C)nn(-c3ccc(F)cc3)c2-n2cccc2)CC1 | -5.65% |
| OC(COc1cccc2ccccc12)CN1CCN(c2ccccc2)CC1 (stereo unspecified) | active: 65% |
| CCC(C)NC(=O)Cn1c(=O)n(-c2ccc(OC)c(OC)c2)c(=O)c2ccccc21 (stereo unspecified) | 16.4% |

Source: PubChem BioAssay AID485344 (National Center for Advancing Translational Sciences (NCATS), 2010)
